# Source: the supplement of paper PMC4967469
# How the values were obtained:
# Assay in all cases: Viability of human cancer cell lines after 72 h of drug (GDSC screen)
# Roscovitine = compound: CC[C@H](CO)Nc1nc(NCc2ccccc2)c2ncn(C(C)C)c2n1 [Roscovitine]; conditions: top dose 16 µM; top dose inferred
# Method: (§1)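 Human cancer cell lines in 384-well plates, medium with 10% serum, drug for 72 h over a 256-fold dose range (nine 2-fold or five 4-fold steps up to the top dose). Adherent lines were fixed and stained with the nucleic acid dye Syto60, suspension lines read with resazurin; signal relative to control wells, capped at 0 and 100%. One two-parameter sigmoid per drug and line, fitted in a mixed model over all curves with the slope shared within a line.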
# Midostaurin = compound: CO[C@@H]1[C@H](N(C)C(=O)c2ccccc2)C[C@H]2O[C@]1(C)n1c3ccccc3c3c4c(c5c6ccccc6n2c5c31)C(=O)NC4 [Midostaurin]; conditions: top dose 0.512 µM; top dose inferred
# Method: as §1
# Mitomycin C = compound: CO[C@@]12[C@H](COC(N)=O)C3=C(C(=O)C(C)=C(N)C3=O)N1C[C@@H]1N[C@@H]12 [Mitomycin C]; conditions: top dose 16 µM
# Method: as §1
# Bosutinib = compound: COc1cc(Nc2c(C#N)cnc3cc(OCCCN4CCN(C)CC4)c(OC)cc23)c(Cl)cc1Cl [Bosutinib]; conditions: top dose 2 µM
# Method: as §1
# NVP-BHG712 = compound: Cc1ccc(C(=O)Nc2cccc(C(F)(F)F)c2)cc1Nc1nc(-c2cccnc2)nc2c1cnn2C [NVP-BHG712]; conditions: top dose 10.24 µM; top dose inferred
# Method: as §1
# IOX2 = compound: O=C(O)CNC(=O)c1c(O)c2ccccc2n(Cc2ccccc2)c1=O [IOX2]; conditions: top dose 0.1 µM; top dose inferred
# Method: as §1
Cell Line,AUC (Roscovitine),IC50 (Roscovitine),AUC (Midostaurin),IC50 (Midostaurin),AUC (Mitomycin C),IC50 (Mitomycin C),AUC (Bosutinib),IC50 (Bosutinib),AUC (NVP-BHG712),IC50 (NVP-BHG712),AUC (IOX2),IC50 (IOX2)
"LU-65 (large cell lung carcinoma, suspension)",0.958,> 16000 nM,0.975,> 512 nM,0.533,1250 nM,0.987,> 2000 nM,0.91,> 10200 nM,0.985,> 100 nM
"LC4-1 (lymphoblastic leukaemia, suspension)",0.917,> 16000 nM,0.938,> 512 nM,0.504,1030 nM,0.971,> 2000 nM,0.867,> 10200 nM,0.983,> 100 nM
"D-283MED (medulloblastoma, adherent)",0.978,> 16000 nM,0.934,> 512 nM,0.275,246 nM,0.983,> 2000 nM,0.991,> 10200 nM,0.99,> 100 nM
"VAL (B-cell lymphoma, suspension)",0.896,> 16000 nM,0.915,> 512 nM,0.227,160 nM,0.844,1440 nM,0.584,1090 nM,0.985,> 100 nM
"no-10 (glioma, adherent)",0.907,> 16000 nM,0.965,> 512 nM,0.352,353 nM,0.983,> 2000 nM,0.979,> 10200 nM,0.971,> 100 nM
"GOTO (neuroblastoma, adherent)",0.881,> 16000 nM,0.952,> 512 nM,0.435,649 nM,0.957,> 2000 nM,0.886,> 10200 nM,0.963,> 100 nM
"EM-2 (chronic myeloid leukaemia, suspension)",0.976,> 16000 nM,0.943,> 512 nM,0.502,1010 nM,0.601,246 nM,0.155,46.1 nM,0.98,> 100 nM
"COLO-824 (breast, adherent)",0.986,> 16000 nM,0.954,> 512 nM,0.548,1360 nM,0.988,> 2000 nM,0.959,> 10200 nM,0.987,> 100 nM
"EJM (lymphoid neoplasm, semi-adherent)",0.969,> 16000 nM,0.981,> 512 nM,0.625,2080 nM,0.893,1710 nM,0.898,9230 nM,0.992,> 100 nM
"SLVL (B-cell lymphoma, suspension)",0.938,> 16000 nM,0.943,> 512 nM,0.247,178 nM,0.964,> 2000 nM,0.863,9720 nM,0.984,> 100 nM
"SHP-77 (small cell lung carcinoma, semi-adherent)",0.962,> 16000 nM,0.977,> 512 nM,0.559,1430 nM,0.99,> 2000 nM,0.923,> 10200 nM,0.991,> 100 nM
"NAMALWA (Burkitt lymphoma, suspension)",0.939,> 16000 nM,0.981,> 512 nM,0.21,169 nM,0.943,> 2000 nM,0.51,680 nM,0.986,> 100 nM
"SF126 (glioma, adherent)",0.957,> 16000 nM,0.78,223 nM,0.565,1520 nM,0.915,> 2000 nM,0.986,> 10200 nM,0.945,> 100 nM
"KE-37 (lymphoblastic leukaemia, suspension)",0.968,> 16000 nM,0.839,237 nM,0.03,< 62.5 nM,0.653,298 nM,0.813,3970 nM,0.994,> 100 nM
"A101D (melanoma, adherent)",0.877,> 16000 nM,0.852,> 512 nM,0.305,248 nM,0.86,> 2000 nM,0.82,7710 nM,0.948,> 100 nM
"KARPAS-299 (anaplastic large cell lymphoma, suspension)",0.888,12700 nM,0.992,> 512 nM,0.56,–,0.876,1430 nM,0.895,8720 nM,0.984,> 100 nM
"SNU-C1 (large intestine, suspension)",0.94,> 16000 nM,0.932,> 512 nM,0.591,2000 nM,0.917,> 2000 nM,0.967,> 10200 nM,0.971,> 100 nM
"QIMR-WIL (acute myeloid leukaemia, suspension)",0.915,> 16000 nM,0.866,433 nM,0.201,135 nM,0.819,1100 nM,0.816,5460 nM,0.984,> 100 nM
"ES8 (Ewing sarcoma, adherent)",0.9,> 16000 nM,0.867,407 nM,0.074,< 62.5 nM,0.965,> 2000 nM,0.841,6370 nM,0.986,> 100 nM
"LOUCY (T-cell lymphoblastic leukaemia, suspension)",0.863,9880 nM,0.927,> 512 nM,0.08,< 62.5 nM,0.979,> 2000 nM,0.968,> 10200 nM,0.99,> 100 nM
"KELLY (neuroblastoma, adherent)",0.956,> 16000 nM,0.969,> 512 nM,0.424,634 nM,0.945,> 2000 nM,0.877,8660 nM,0.988,> 100 nM

Cell Line,AUC (Roscovitine),IC50 (Roscovitine),AUC (Midostaurin),IC50 (Midostaurin),AUC (Mitomycin C),IC50 (Mitomycin C),AUC (Bosutinib),IC50 (Bosutinib),AUC (NVP-BHG712),IC50 (NVP-BHG712),AUC (IOX2),IC50 (IOX2)
"EVSA-T (breast, adherent)",0.98,> 16000 nM,0.989,> 512 nM,0.569,1500 nM,0.987,> 2000 nM,0.932,> 10200 nM,0.986,> 100 nM
"SK-ES-1 (Ewing sarcoma, semi-adherent)",0.89,> 16000 nM,0.89,> 512 nM,0.091,< 62.5 nM,0.879,> 2000 nM,0.94,> 10200 nM,0.983,> 100 nM
"BB49-HNC (head and neck, adherent)",0.9,> 16000 nM,0.916,> 512 nM,0.421,558 nM,0.977,> 2000 nM,0.936,> 10200 nM,0.945,> 100 nM
"HSC-39 (stomach, suspension)",0.98,> 16000 nM,0.977,> 512 nM,0.657,2550 nM,0.833,1050 nM,0.991,> 10200 nM,0.968,> 100 nM
"JJN-3 (haematopoietic neoplasm, suspension)",0.938,> 16000 nM,0.964,> 512 nM,0.708,3380 nM,0.972,> 2000 nM,0.829,4880 nM,0.985,> 100 nM
"MC116 (B-cell lymphoma, suspension)",0.913,10300 nM,0.968,> 512 nM,0.569,1470 nM,0.999,> 2000 nM,0.897,5970 nM,0.999,> 100 nM
"EC-GI-10 (oesophagus, adherent)",0.989,> 16000 nM,0.986,> 512 nM,0.755,5360 nM,0.876,1950 nM,0.958,> 10200 nM,0.988,> 100 nM
"CW-2 (large intestine, adherent)",0.913,> 16000 nM,0.988,> 512 nM,0.818,9910 nM,0.989,> 2000 nM,0.966,> 10200 nM,0.987,> 100 nM
"AMO-1 (haematopoietic neoplasm, suspension)",0.955,> 16000 nM,0.99,> 512 nM,0.399,550 nM,0.956,> 2000 nM,0.762,3190 nM,0.985,> 100 nM
"OMC-1 (cervix, adherent)",0.986,> 16000 nM,0.983,> 512 nM,0.375,446 nM,0.894,> 2000 nM,0.97,> 10200 nM,0.986,> 100 nM
"NCI-H2227 (small cell lung carcinoma, semi-adherent)",0.984,> 16000 nM,0.969,> 512 nM,0.786,7860 nM,0.986,> 2000 nM,0.981,> 10200 nM,0.984,> 100 nM
"MFH-ino (soft tissue, adherent)",0.929,> 16000 nM,0.759,208 nM,0.177,85.5 nM,0.856,> 2000 nM,0.946,> 10200 nM,0.916,> 100 nM
"A253 (head and neck, adherent)",0.975,> 16000 nM,0.94,> 512 nM,0.327,335 nM,0.95,> 2000 nM,0.979,> 10200 nM,0.988,> 100 nM
"MLMA (hairy cell leukaemia, semi-adherent)",0.937,> 16000 nM,0.961,> 512 nM,0.54,1290 nM,0.784,854 nM,0.485,581 nM,0.98,> 100 nM
"ARH-77 (myeloma, suspension)",0.954,> 16000 nM,0.964,> 512 nM,0.301,282 nM,0.985,> 2000 nM,0.88,10000 nM,0.987,> 100 nM
"OCI-AML3 (acute myeloid leukaemia, suspension)",0.968,> 16000 nM,0.981,> 512 nM,0.314,330 nM,0.979,> 2000 nM,0.327,229 nM,0.98,> 100 nM
"no-11 (glioma, adherent)",0.949,> 16000 nM,0.923,> 512 nM,0.707,4510 nM,0.908,> 2000 nM,0.931,> 10200 nM,0.94,> 100 nM
"NCI-H1770 (non-small cell lung carcinoma, suspension)",0.977,> 16000 nM,0.852,324 nM,0.27,244 nM,0.992,> 2000 nM,0.867,7350 nM,0.987,> 100 nM
"NCI-H82 (small cell lung carcinoma, suspension)",0.901,> 16000 nM,0.989,> 512 nM,0.661,2740 nM,0.945,> 2000 nM,0.974,> 10200 nM,0.989,> 100 nM
"CPC-N (small cell lung carcinoma, suspension)",0.967,> 16000 nM,0.985,> 512 nM,0.355,–,0.971,> 2000 nM,0.922,> 10200 nM,0.979,> 100 nM
"SH-4 (melanoma, adherent)",0.91,> 16000 nM,0.849,> 512 nM,0.339,278 nM,0.925,> 2000 nM,0.62,1650 nM,0.97,> 100 nM

# The IC50 comes from the fitted curve, where viability falls to half of the control; a fit beyond the top or the lowest dose is shown as a bound at that dose. AUC is the area under the same curve over the 256-fold range up to the top dose, as a fraction: 1 means no effect, lower means more sensitive. For some of these results: An inferred top dose comes from the curve model; the source does not state it.
